According to PubChem BioAssay AID1347417 (National Center for Advancing Translational Sciences (NCATS), 2020):
Hit rate of the full screen: of about 120,000 compounds, about 5,300 (4.4%) were called active. Inconclusive means that the source gave no clear call. Such entries were picked first, then a sample of the others. Calls come from the whole dose curve; as a rule, active = well fitted inhibition curve with a large enough effect; inconclusive = small, poorly fitted or top-dose-only effect; inactive = no such curve, though single readings can be large or run the other way. A potency beside an inconclusive call is a rough fit, not a confirmed value.

Assay: qHTS Primary assay for Inhibitors of Plasmodium falciparum Dd2 growth in vitro; note: nearly all actives have a fitted effect of over 65% in size;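 for activity, negative = inhibition: plate controls were DMSO vehicle for no effect and reference drug for full effect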
Conditions: P. falciparum Dd2 growth, SYBR Green, 72 h; activity, negative = inhibition: at 28.9 µM (top of the series) unless noted; series mostly up to 28.9 µM
Summary of the method: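 Readout: SYBR Green fluorescence, 485 nm excitation, 535 nm emission, after ~16 h lysis at 37C. Before that, Dd2-infected red cells (2.5% hematocrit) grew 72 h with compound, 29 uM top final concentration.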
Potency is the fitted concentration of half-maximal effect; tags give direction and shape of the fitted curve.

| SMILES | activity, negative = inhibition | Potency | outcome |
| --- | --- | --- | --- |
| CCC[C@H]1CN(Cc2c(C)noc2C)C[C@@H]1NC(=O)C1CCOCC1 | inactive: -3.71% | – | – |
| Cc1noc([C@@H](C)NC(=O)c2nc3ccccc3[nH]2)c1C(=O)O | – | inconclusive: 31.6 µM [inhibitor, partial curve, poor fit] | – |
| O=C1[C@H]2CC[C@H](CN(Cc3cccc(N4CCOCC4)c3)C2)N1CC1CCC1 | – | inconclusive: 12.6 µM [inhibitor, partial curve, poor fit] | – |
| COc1cccc(Cn2c(=O)n(-c3ccc(Br)cc3F)c(=O)c3sc4ccccc4c32)c1 | – | inconclusive: 17.8 µM [inhibitor, single point] | – |
| Cc1cc2cc(-c3c(C)noc3C)nc(Nc3ccc(F)cc3)c2o1 | – | inconclusive: 20 µM [inhibitor, single point] | – |
| CC(=O)Nc1ccc(S(=O)(=O)NC[C@@H]2C=C(C)[C@H](CC(=O)NC3CCCC3)C[C@H]2C(C)C)cc1 | inactive: -14.9% | – | – |
| COc1ccc(C2=Nc3ccc(C)cc3NC(c3ccc(Cl)cc3)=N2)cc1 | – | inconclusive: 11.2 µM [inhibitor, single point] | – |
| COc1ccc(Cl)cc1NC(=O)CCCn1c(C)c2cnn(-c3ccccc3)c(=O)c2c1C | – | inconclusive: 20 µM [inhibitor, single point] | – |
| CC(C)CCN1CCC(N2CCN(S(=O)(=O)C(C)C)CC2)C1=O (configuration not stated) | inactive: 5.45% | – | – |
| C=CCCC(CN1CCCC1)Oc1ccc(C(=O)N2CCOCC2)cn1 (configuration not stated) | – | active: 6.31 µM | – |
| CCn1c(CN2CCC(C)CC2)nc2cc(NC(=O)COc3ccc([N+](=O)[O-])cc3)ccc21 | – | inconclusive: 5.62 µM [inhibitor, partial curve] | – |
| CNC(=O)[C@@H]1C[C@H](Oc2ccccc2)CN1C(=O)c1cc(C)n(CCCOC)c1C | – | inconclusive: 20 µM [inhibitor, single point] | – |
| CCOc1ccc(C(=O)N2[C@@H]3CC[C@H]2CC(NC(=O)c2cnc(C)cn2)C3)cc1 (some centres not stated) | inactive: -20.7% | – | – |
| COc1ccc(C(=O)Nc2ccc3c(c2)CN(Cc2ccccc2Cl)C(=O)C(C)O3)cc1OC (configuration not stated) | – | inconclusive: 1.12 µM [inhibitor, full curve, poor fit] | – |
| Cc1ccc(CN2CCC3(CC2)CC(c2ccccc2)C(=O)N3C)cc1F (configuration not stated) | – | inconclusive: 17.8 µM [inhibitor, single point] | – |
| CCc1cccc(NC(=O)C2CCN(C(=O)c3nnn4c3COC(c3ccc(C)cc3)C4)CC2)c1 (configuration not stated) | – | inconclusive: 0.631 µM [inhibitor, full curve, poor fit] | – |
| COc1ccc(NC(=O)Nc2nnc(N(C)C3CCCCC3)s2)c(OC)c1 | – | inconclusive: 12.6 µM [inhibitor, partial curve] | – |
| COC(C(=O)Nc1ccnn1C1CCN(C(=O)C2CCC2)CC1)c1ccccc1 (configuration not stated) | inactive: -1.96% | – | – |
| COc1cc(C(=O)Nc2ccc(OCc3cc(=O)n4cc(C)sc4n3)cc2)cc(OC)c1OC | inactive: 14.6% | – | – |
| O=C(Nc1cccc(C(F)(F)F)c1)O[C@@H]1CO[C@H]2[C@@H]1OC[C@@H]2NS(=O)(=O)c1cccs1 | – | inconclusive: 0.355 µM [inhibitor, full curve, poor fit] | – |
| COc1ccc(Cn2c(SCc3ccc(C(=O)NCc4ccccc4F)cc3)nc3cccnc32)cc1 | – | inconclusive: 10 µM [inhibitor, single point] | – |

| SMILES | activity, negative = inhibition | Potency | outcome |
| --- | --- | --- | --- |
| COc1nc2nc(CCc3ccccc3)n(C)c2cc1-c1cccc(CO)c1 | – | inconclusive: 10 µM [inhibitor, partial curve, poor fit] | – |
| O=C(c1ccc2c(c1)N(Cc1ccc(F)cc1)C(=O)c1ccccc1S2(=O)=O)N1CCC(Cc2ccccc2)CC1 | – | inconclusive: 3.98 µM [inhibitor, single point] | – |
| CN1CCCCCCN(C(=O)Cn2c(=O)oc3ccccc32)[C@H]2CCC[C@H]2C1=O | inactive: -10.3% | – | – |
| CC1=NOC2(CCN([S+](=O)([O-])c3ccccc3)C2)C1 (configuration not stated) | inactive: -7.35% [at 44.1 µM] | – | – |
| C[C@@H]1CN(C(=O)c2cnc3sccn3c2=O)C[C@@]1(O)C1CCC1 | inactive: -1.79% | – | – |
| COc1cccc(NC(=O)c2cc3c(n2C)CCN(Cc2ccc(F)cc2)C3)c1 | – | inconclusive: 8.91 µM [inhibitor, partial curve, poor fit] | – |
| CC(C)NC(=O)c1ccccc1OCC1CCCN(Cc2ccc(F)cc2)C1 (configuration not stated) | – | inconclusive: 12.6 µM [inhibitor, partial curve] | – |
| COc1cc(OC)c(NC(=O)Nc2ccccc2OCc2cc(=O)n3cc(C)ccc3n2)cc1Cl | – | inconclusive: 11.2 µM [inhibitor, single point] | – |
| COc1ccc(-c2nc(-c3nnn4c3COC(c3ccc(C)cc3)C4)no2)cc1 (configuration not stated) | inactive: 29% | – | – |
| COc1ccc(CCNC(=O)CCc2c(C)nc3nc(C)nn3c2C)cc1OC | – | inconclusive: 10 µM [inhibitor, single point] | – |
| COc1ccccc1CN1CCN(C(=O)c2ccc3c(c2)C(O)CCCCCN3C)CC1 (configuration not stated) | – | inconclusive: 6.31 µM [inhibitor, partial curve, poor fit] | – |
| O=C(c1c(F)ccc(F)c1F)N1CCCC(c2nc(-c3ccncc3)ncc2-c2ccccc2)C1 (configuration not stated) | inactive: -17.5% | – | – |
| COCCn1c(C)cnc1CC1CCN(C(=O)c2c[nH]c3ccccc23)CC1 | – | inconclusive: 3.55 µM [inhibitor, partial curve] | – |
| O=C1Nc2ccc(-c3ccccc3F)cc2C(=O)N2CCN(C(=O)c3ccccc3)C[C@H]12 | – | inconclusive: 1.41 µM [inhibitor, full curve, poor fit] | – |
| CCCOc1ccc(OC(=O)c2cn(-c3ccc(OC)cc3)c(=O)c3ccccc23)cc1 | – | inconclusive: 10 µM [inhibitor, single point] | – |
| Cc1ccc(C(=O)N2CCC3(CC2)NC(=O)N(c2ccccc2)N3)s1 | inactive: -19.5% | – | – |
| CCCOc1ccc(C(=O)Nc2ccc3oc(-c4ccc(N(C)C)cc4)nc3c2)cc1 | – | inconclusive: 14.1 µM [inhibitor, partial curve, poor fit] | – |
| CCOc1cc(=O)n2c(c1C(=O)Nc1cccc(C)c1)CCCC2 | inactive: 21.6% | – | – |
| Cc1ccccc1S(=O)(=O)N1CC[C@@H]2CN(c3cnccn3)[C@@H]2C1 | inactive: -1.86% | – | – |
| COC(=O)c1ccc(NC(=O)C(=O)NCC(c2cccnc2)N2CCc3ccccc32)cc1 (configuration not stated) | – | inconclusive: 17.8 µM [inhibitor, single point] | – |
| CC(C)NC(=O)c1cnc2c(c1)N(C(=O)Cc1cn(C)c3ccccc13)CCC2 | inconclusive: -31.5% [inhibitor] [at 44.1 µM] | – | – |

| SMILES | activity, negative = inhibition | Potency | outcome |
| --- | --- | --- | --- |
| Cc1ccc(NC(=O)Cn2c(=O)n(Cc3ccc(C(=O)NCc4ccc5c(c4)OCO5)cc3)c(=O)c3ccccc32)cc1 | – | active: 8.91 µM | – |
| CCOc1ccc(CNC(=O)CCS(=O)(=O)c2ccc3c(c2)oc(=O)n3C)cc1 | inactive: 3.53% | – | – |
| COC(=O)c1c(-c2ccc(Cl)cc2)noc1N1CCN(c2ccc(F)cc2)CC1 | inactive: -17.5% | – | – |
| N#Cc1cccc(NC(=O)N[C@H]2CO[C@H]3[C@@H]2OC[C@@H]3Nc2nccc(C3CCCC3)n2)c1 | – | inconclusive: 22.4 µM [inhibitor, single point] | – |
| COc1ccc(NC(=O)NC[C@H]2C[C@@H]3CCN2C[C@@H]3c2cc(-c3ccc(OC)c(OC)c3)nn2C)cc1 | – | inconclusive: 12.6 µM [inhibitor, partial curve, poor fit] | – |
| CC(C)NC(=O)CN1C(=O)c2cccnc2Sc2ccccc21 | – | inconclusive: 11.2 µM [inhibitor, partial curve] | – |
| Clc1cccc(-c2cnc([C@@H]3COCCN3Cc3c[nH]c4ccccc34)[nH]2)c1 | – | inconclusive: 31.6 µM [inhibitor, single point] | – |
| Cc1ccc(CN(C)C2CCOc3ccccc32)cc1 (configuration not stated) | – | – | inactive [at 44.1 µM] |
| COc1cccc(CNC(=O)CN2C(=O)NC(c3ccc(Cl)cc3)C3=C2COC3=O)c1OC (configuration not stated) | – | inconclusive: 11.2 µM [inhibitor, single point] | – |
| CCC1=C(C(=O)OC)C(c2ccc(Cl)cc2)N2C(CC(=O)N3CCOCC3)=CSC2=N1 (configuration not stated) | – | inconclusive: 1 µM [inhibitor, full curve, poor fit] | – |
| Cc1c(CN2CC(=O)N(CC(C)C)CC(OCc3ccccc3F)C2)c(=O)n(-c2ccccc2)n1C (configuration not stated) | – | inconclusive: 11.2 µM [inhibitor, partial curve, poor fit] | – |
| CCOC(=O)c1cccc(NC(=O)c2ccc3nc(CCc4ccccc4)oc3c2)c1 | – | inconclusive: 10 µM [inhibitor, partial curve, poor fit] | – |
| COc1ccc(OCc2nc(C3CN(C(=O)C4(c5ccc(OC)cc5)CC4)C3)no2)cc1 | – | inconclusive: 20 µM [inhibitor, single point] | – |
| O=C(c1ccc2c(c1)N(Cc1ccc(Cl)cc1)C(=O)c1ccccc1S2=O)N1CCC(Cc2ccccc2)CC1 (configuration not stated) | – | inconclusive: 10 µM [inhibitor, single point] | – |
| COCCN1C(=O)c2ccccc2C(C(=O)NCCCc2ccccc2)C12CCCC2 (configuration not stated) | – | active: 11.2 µM | – |
| Cc1nc(N2CCC(NC(=O)c3ccc4ccccc4n3)CC2)cc(C(F)(F)F)n1 | – | inconclusive: 10 µM [inhibitor, single point] | – |
| CN(C/C=C/c1ccccc1)C(=O)c1ccc(C2CCCNC2)cc1 (configuration not stated) | – | inconclusive: 12.6 µM [inhibitor, partial curve, poor fit] | – |
| C#CCN(C)Cc1nc(C2(O)CCN(CC3CC3)CC2)cs1 | – | – | inactive [at 44.1 µM] |
| O=C1NC(=NC2CCCCC2)C2(CCN([S+](=O)([O-])c3cccc(C(F)(F)F)c3)CC2)N1c1cc(F)cc(F)c1 | – | inconclusive: 12.6 µM [inhibitor, partial curve] | – |
| O=C(c1ccncc1)N1CCC(n2cc(-c3nc(-c4ccccc4)no3)nn2)CC1 | – | inconclusive: 3.98 µM [inhibitor, single point] | – |
